Like-named read-outs stand apart in the source and are kept apart here.
Assays:
[1] = test system: bovine viral diarrhea virus (BVDV)
[2] = test system: bovine viral diarrhea virus (BVDV); details: single detergent 0.1%±0.01%, IVIG-containing liquid, 17° C.±1° C., within 10 minutes

Row | Substance | virus reduction factor (RF), BVDV [1] | virus reduction factor (RF), BVDV ([1]; single detergent 0.1%±0.01%, pdFVIII-containing liquid, 23° C.±1° C., within 5 minutes) | virus reduction factor (RF), BVDV [2]
1 | 4-(1,1,3,3-tetramethylbutyl)phenol, ethoxylated [Triton X-100, reference compound] | around 5 |  | 
2 | 4-tert-octylbenzyl alcohol polyethoxylate |  | around 5 | around 5

Source: patent publication US12258540B2, “Environmentally compatible detergents for inactivation of lipid-enveloped viruses” (TAKEDA PHARMACEUTICAL COMPANY LIMITED, priority 2017, dated 2025)
